{
  "source": "the supplement of paper PMC4723716",
  "tested_on": "Plasmodium falciparum NF54 stage V gametocytes",
  "assay": "viability index relative to DMSO control (fraction); higher = less gametocyte killing",
  "details": "2.5 µM, incubation time: 72 h",
  "in_short": "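Compound at 2.5 µM was incubated for 72 hr at 37°C under low oxygen with P. falciparum NF54 stage V gametocytes (0.75% gametocytemia, 1.25% hematocrit, 10 µl, serum-free screening medium) in 1,536-well plates. Staining used 3 µl of 2.5 µM MitoTracker Red CMXRos plus 0.13% saponin for one to two hours, and red particles of 20–70 µm2 were counted in one imaged field per well. Each viability index is that count relative to the plate mean of solvent-only wells.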",
  "key": {"[1]": {"details": "library set: Broad Institute DOS"}},
  "note": "± gives the uncertainty stated by the source. The full ranking holds about 9,900 compounds; the median of “viability index relative to DMSO control” is about 1, and the lowest 2% start at about 0.85. The list shows a part of the results.",
  "data": [
    {"smiles": "COc1cccc(CNC(=O)C[C@H]2CC[C@@H]3[C@@H](COc4ccc(NC(=O)c5cccs5)cc4C(=O)N3C)O2)c1", "values": [
      {"measurement": "viability index", "setting": "[1]", "value": "0.955 ± 0.13"}
    ]},
    {"smiles": "COc1ccc(NC(=O)N2CC[C@@]3(CC2)CN([C@H](CO)c2[nH]c4cc(OC)ccc4c32)C(=O)c2cccnc2)cc1", "values": [
      {"measurement": "viability index", "setting": "[1]", "value": "0.914 ± 0.067"}
    ]},
    {"smiles": "COc1ccc(NC(=O)N2C[C@@H](O)COC[C@H]3O[C@@H](CC(=O)NCc4ccncn4)CC[C@@H]32)cc1", "values": [
      {"measurement": "viability index", "setting": "[1]", "value": "1.04 ± 0.025"}
    ]},
    {"smiles": "O=C(CC(F)(F)F)N1C[C@H]2[C@@H](c3ccccc31)[C@@H](CO)N2C(=O)c1ccncc1", "values": [
      {"measurement": "viability index", "setting": "[1]", "value": "1.071 ± 0.008"}
    ]},
    {"smiles": "CCC(=O)N1CC(=O)N2[C@H](CO)[C@H](c3ccc(C#CCC(C)C)cc3)[C@H]2C1", "values": [
      {"measurement": "viability index", "setting": "[1]", "value": "0.956 ± 0.046"}
    ]},
    {"smiles": "CC(C)(C)[S@](=O)N1Cc2cc(C(=O)NC3CCC3)nc(-c3cccc(-c4ccccc4F)c3)c2[C@@H]1CCO", "values": [
      {"measurement": "viability index", "setting": "[1]", "value": "0.944 ± 0.042"}
    ]},
    {"smiles": "COc1ccccc1CNC(=O)C[C@H]1C[C@@H]2c3cc(NC(=O)C4CCC4)ccc3O[C@@H]2[C@H](CO)O1", "values": [
      {"measurement": "viability index", "setting": "[1]", "value": "1.05 ± 0.038"}
    ]},
    {"smiles": "COc1ccc2c3c([C@@H](CO)N(C[C@]33CCN(CC3)C(=O)Nc3cccc(F)c3)C(=O)CN3CCOCC3)n(C)c2c1", "values": [
      {"measurement": "viability index", "setting": "[1]", "value": "0.993 ± 0.12"}
    ]},
    {"smiles": "CO[C@@H](CN(C)C(=O)C1CCOCC1)[C@@H](C)CN(C(=O)Nc1ccc(C(F)(F)F)cc1)[C@H](C)CO", "values": [
      {"measurement": "viability index", "setting": "[1]", "value": "0.998 ± 0.014"}
    ]},
    {"smiles": "COCC#Cc1ccc([C@@H]2[C@H](CO)N3CCCCN(C(=O)NC4CCCC4)C[C@@H]23)cc1", "values": [
      {"measurement": "viability index", "setting": "[1]", "value": "1.01 ± 0.061"}
    ]},
    {"smiles": "COc1cccc(C#Cc2ccc([C@H]3[C@@H](C#N)N(C(=O)c4ccccn4)[C@@H]3CO)cc2)c1", "values": [
      {"measurement": "viability index", "setting": "[1]", "value": "1.098 ± 0.009"}
    ]},
    {"smiles": "CN1CCN(C(=O)C[C@@H]2C[C@H]3c4cc(NS(C)(=O)=O)ccc4O[C@H]3[C@H](CO)O2)CC1", "values": [
      {"measurement": "viability index", "setting": "[1]", "value": "0.878 ± 0.27"}
    ]},
    {"smiles": "CN1CCN(C(=O)C[C@@H]2CC[C@H]3[C@@H](COC[C@@H](O)CN3CC3CCCCC3)O2)CC1", "values": [
      {"measurement": "viability index", "setting": "[1]", "value": "0.989 ± 0.087"}
    ]},
    {"smiles": "CC(C)C#Cc1ccc([C@H]2[C@@H](CO)N3C(=O)CN(S(=O)(=O)c4ccccc4)C[C@H]23)cc1", "values": [
      {"measurement": "viability index", "setting": "[1]", "value": "1.04 ± 0.096"}
    ]},
    {"smiles": "COc1ccc2c3c([nH]c2c1)[C@@H](CO)N(C[C@]31CCN(CC1)C(=O)Cc1cccnc1)S(=O)(=O)c1ccc(C)cc1", "values": [
      {"measurement": "viability index", "setting": "[1]", "value": "0.827 ± 0.019"}
    ]},
    {"smiles": "O=C(C[C@H]1C[C@@H]2c3cc(NS(=O)(=O)c4ccc(F)cc4)ccc3O[C@@H]2[C@@H](CO)O1)N1CCc2ccccc2C1", "values": [
      {"measurement": "viability index", "setting": "[1]", "value": "1.118 ± 0.0083"}
    ]},
    {"smiles": "COc1cccc(S(=O)(=O)N[C@H]2CC[C@H](CC(=O)NC3Cc4ccccc4C3)O[C@H]2CO)c1", "values": [
      {"measurement": "viability index", "setting": "[1]", "value": "0.905 ± 0.13"}
    ]},
    {"smiles": "C[C@@H]1CCCCO[C@@H](CN(C)C(=O)Nc2ccccc2)[C@@H](C)CN([C@@H](C)CO)C(=O)c2cc(NC(=O)Nc3ccccc3)ccc2O1", "values": [
      {"measurement": "viability index", "setting": "[1]", "value": "1.11 ± 0.013"}
    ]},
    {"smiles": "CO[C@@H]1CN(C)C(=O)c2cc(NC(=O)NC(C)C)ccc2OC[C@@H](C)N(Cc2ccccc2)C[C@H]1C", "values": [
      {"measurement": "viability index", "setting": "[1]", "value": "1.1 ± 0.037"}
    ]},
    {"smiles": "C/C=C/c1ccc([C@H]2[C@H]3CNC[C@@H]2N3S(=O)(=O)c2cccc(F)c2)cc1", "values": [
      {"measurement": "viability index", "setting": "[1]", "value": "1.02 ± 0.027"}
    ]},
    {"smiles": "CN(C)C(=O)c1cccc(-c2ccc([C@@H]3[C@H]4CNC[C@@H]3N4C(=O)Nc3cccc(Cl)c3)cc2)c1", "values": [
      {"measurement": "viability index", "setting": "[1]", "value": "1.1 ± 0.059"}
    ]},
    {"smiles": "C[C@@H]1CN([C@@H](C)CO)C(=O)c2c(c3ccccc3n2C)-c2ccccc2CO[C@H]1CN(C)C(=O)NC1CCCCC1", "values": [
      {"measurement": "viability index", "setting": "[1]", "value": "0.877 ± 0.059"}
    ]},
    {"smiles": "O=C(Nc1ccc(-c2ccccc2)cc1)[C@H]1[C@H](CO)[C@H]2Cn3c(cccc3=O)[C@H]2N1CC1CCOCC1", "values": [
      {"measurement": "viability index", "setting": "[1]", "value": "1 ± 0.081"}
    ]},
    {"smiles": "CN1CCN(C(=O)c2cc3c(c(-c4cccc(Br)c4)n2)[C@H](CCO)N([S@@](=O)C(C)(C)C)C3)CC1", "values": [
      {"measurement": "viability index", "setting": "[1]", "value": "1.11 ± 0.077"}
    ]},
    {"smiles": "O=C(Nc1ccc(Cl)cc1)N1[C@@H]2CNC[C@H]1[C@H]2c1ccc(-c2ccccc2)cc1", "values": [
      {"measurement": "viability index", "setting": "[1]", "value": "1.07 ± 0.013"}
    ]},
    {"smiles": "O=S(=O)(c1ccccc1F)N1CC[C@@H]2[C@H](CO)Nc3ccc(C4=CCCCC4)cc3[C@@H]21", "values": [
      {"measurement": "viability index", "setting": "[1]", "value": "1 ± 0.076"}
    ]},
    {"smiles": "OC[C@@H]1[C@@H](c2ccc(C#Cc3ccccc3F)cc2)[C@@H]2CN(CC3CCOCC3)CCCCN12", "values": [
      {"measurement": "viability index", "setting": "[1]", "value": "1.01 ± 0.072"}
    ]},
    {"smiles": "O=C(C[C@@H]1C=C[C@H](NC(=O)Nc2ccccc2F)[C@@H](CO)O1)NCc1ccc(-c2ccccc2)cc1", "values": [
      {"measurement": "viability index", "setting": "[1]", "value": "1.11 ± 0.14"}
    ]},
    {"smiles": "CN1C(=O)c2cc(NC(=O)C3CCOCC3)ccc2OC[C@H]2O[C@@H](CC(=O)NCc3ccccc3F)CC[C@H]21", "values": [
      {"measurement": "viability index", "setting": "[1]", "value": "0.949 ± 0.17"}
    ]},
    {"smiles": "O=C(C[C@H]1C[C@H]2c3cc(NS(=O)(=O)c4ccc(F)cc4)ccc3O[C@H]2[C@@H](CO)O1)N1CCc2ccccc2C1", "values": [
      {"measurement": "viability index", "setting": "[1]", "value": "1.06 ± 0.033"}
    ]},
    {"smiles": "CCC(=O)N1C[C@@H](C)[C@H](OC)CN(C)C(=O)c2ccc(NC(=O)CC(F)(F)F)cc2OC[C@H]1C", "values": [
      {"measurement": "viability index", "setting": "[1]", "value": "1.07 ± 0.021"}
    ]},
    {"smiles": "CCCNC(=O)N(C)C[C@H]1Oc2cc(C#C[C@H](C)O)ccc2S(=O)(=O)N([C@H](C)CO)C[C@@H]1C", "values": [
      {"measurement": "viability index", "setting": "[1]", "value": "1.0353 ± 0.00023"}
    ]},
    {"smiles": "CN(C)CC(=O)N1[C@H](C#N)[C@H](c2ccc(C#CC3CCCCC3)cc2)[C@@H]1CO", "values": [
      {"measurement": "viability index", "setting": "[1]", "value": "0.981 ± 0.11"}
    ]},
    {"smiles": "CO[C@@H]1CN(C)C(=O)c2cc(NC(=O)Nc3cccc(Cl)c3)ccc2OC[C@@H](C)N(C(=O)Nc2c(C)noc2C)C[C@@H]1C", "values": [
      {"measurement": "viability index", "setting": "[1]", "value": "1.06 ± 0.1"}
    ]},
    {"smiles": "CN1CCN(C(=O)C[C@H]2CC[C@H]3[C@@H](COc4ccc(NC(=O)C5CCOCC5)cc4C(=O)N3C)O2)CC1", "values": [
      {"measurement": "viability index", "setting": "[1]", "value": "1.09 ± 0.038"}
    ]},
    {"smiles": "Cc1ccccc1S(=O)(=O)N1C[C@H](O)COC[C@H]2O[C@@H](CC(=O)N3CCCCC3)CC[C@@H]21", "values": [
      {"measurement": "viability index", "setting": "[1]", "value": "0.994 ± 0.13"}
    ]},
    {"smiles": "C[C@@H]1CN([C@H](C)CO)C(=O)c2ccccc2-c2ccccc2CO[C@H]1CN(C)C(=O)Nc1cccc(Cl)c1Cl", "values": [
      {"measurement": "viability index", "setting": "[1]", "value": "0.863 ± 0.045"}
    ]},
    {"smiles": "C[C@H](CO)N1C[C@H](C)[C@@H](CN(C)C(=O)[C@H]2CCCN2C)OCc2ccccc2-c2ccccc2C1=O", "values": [
      {"measurement": "viability index", "setting": "[1]", "value": "0.996 ± 0.084"}
    ]},
    {"smiles": "O=S(=O)(NC[C@H]1[C@H](c2ccccc2)[C@@H](CO)N1CC1CC1)c1ccccc1", "values": [
      {"measurement": "viability index", "setting": "[1]", "value": "1.02 ± 0.052"}
    ]},
    {"smiles": "COc1ccc2c3c([C@H](CO)N(C[C@]33CCN(CC3)C(=O)Nc3ccc(F)cc3F)C(=O)Nc3ccc(F)cc3)n(C)c2c1", "values": [
      {"measurement": "viability index", "setting": "[1]", "value": "1.04 ± 0.029"}
    ]},
    {"smiles": "COc1ccc2c3c([C@@H](CO)NC[C@]33CCN(Cc4ccc(cc4)-c4ccccn4)CC3)n(C)c2c1", "values": [
      {"measurement": "viability index", "setting": "library set: Broad Institute Blood Stage", "value": "0.946 ± 0.052"}
    ]},
    {"smiles": "Cn1cnc(CCNC(=O)[C@H]2[C@H](CO)[C@H]3Cn4c(cccc4=O)[C@H]3N2C(=O)Nc2ccccc2)c1", "values": [
      {"measurement": "viability index", "setting": "[1]", "value": "1.11 ± 0.034"}
    ]},
    {"smiles": "O=C1CNC[C@@H]2[C@@H](c3ccc(-c4ccccc4F)cc3)[C@@H](CO)N12", "values": [
      {"measurement": "viability index", "setting": "[1]", "value": "1.07 ± 0.049"}
    ]},
    {"smiles": "C[C@H](CO)N1C[C@H](C)[C@H](CN(C)S(=O)(=O)c2ccc(Cl)cc2)Oc2ccc(NC(=O)Cn3cnnn3)cc2CC1=O", "values": [
      {"measurement": "viability index", "setting": "[1]", "value": "1.07 ± 0.026"}
    ]}
  ]
}
